Measurements: PubChem BioAssay AID1508642 (National Center for Advancing Translational Sciences (NCATS), 2021)
About 200 (0.47%) of roughly 43,000 compounds were called active. Another 12% or so got no clear call; they are omitted. Calls follow the shape of the dose curve; as a rule, active = well fitted cell-killing curve with a large enough effect; inconclusive = small, poorly fitted or top-dose-only effect, or effect the other way; inactive = flat fitted curve, though single readings scatter. The list shows a part of the results.

assay: Cell viability qHTS assay in S16 Pmp22-F2sN cells; details: S16 Pmp22-F2sN Schwann cells (luciferase reporters placed in the Pmp22 gene) viability, CellTiter-Glo, 24 h; series mostly up to 57.5 µM; activity change, negative = cytotoxicity: at the top concentration; also: nearly all actives have a fitted effect of over 65% in size
Method in brief: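 Rat S16 Schwann reporter line, 24 h treatment with library compounds delivered at 23 nL per well. Cell viability by CellTiter-Glo luminescence.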
% is scaled to controls: 0 for no effect and ±100 for the full control effect.

Compound | activity change, negative = cytotoxicity
Cc1ccc(NC(=O)C2CCCN(S(=O)(=O)c3cn(C(C)C)cn3)C2)c(C)c1 (stereo not drawn) | inactive: -4.67%
Cc1ccc(C)c(N2CCN(C(=O)c3ccc4c(c3)N(Cc3ccc(F)cc3)C(=O)c3ccccc3S4=O)CC2)c1 (stereo not drawn) | inactive: 28.2%
COc1cc(OC)c(NC(=O)CCc2c(C)nc3cc(-c4ccccc4OC)nn3c2C)cc1Cl | inactive: 17%
CC(C)OC(=O)c1c(NC(=O)C2c3ccccc3Oc3ccccc32)sc2c1CCCC2 | inactive: 2.64%
Cc1cccc(N2CCN(S(=O)(=O)c3ccc4[nH]c5c(c4c3)CCCCC5)CC2)c1C | inactive: 16.1%
Cc1cccc(C(=O)NCC(=O)OCc2cc(=O)n3nc(C4CCCCC4)sc3n2)c1 | inactive: -3.3%
COc1cccc(OCCSc2nc(C)c(Cc3ccccc3)c(=O)[nH]2)c1 | inactive: -2.62%
COc1ccc(NC(=O)CCCN2C(=O)CCn3nc(-c4cn(C)c5ccccc45)cc32)cc1OC | inactive: 0.364%
CCC(=O)N1c2ccc(S(=O)(=O)NCc3ccc(F)cc3)cc2CC1C (stereo not drawn) | inactive: -3.79%
COc1cc2c(cc1OC)C(COc1ccc3c(C)cc(=O)oc3c1)N(C(=O)c1cc(Cl)ccc1OC)CC2 (stereo not drawn) | inactive: 8.34%
CCN(CC)C(=O)Cn1nnc2sc(-c3ccccc3)cc2c1=O | inactive: 0.392%
Cc1ccc(CN2CCSc3ccc(C(=O)NCC(C)c4ccccc4)cc32)cc1 (stereo not drawn) | inactive: -25.7%
COc1ccccc1C(=O)Nc1cc2c(cc1N1CCCC1)n(C)c(=O)c(=O)n2C | inactive: 5.38%
CCc1ccc(NC(=O)CSc2nc3ccccc3c(=O)n2CCNC(C)=O)cc1 | inactive: 0.728%
Cc1ccc(NC(=O)C(C)n2nnc3sc4c(c3c2=O)CCCC4)cc1Cl (stereo not drawn) | inactive: -5.35%
Cc1c(Cl)cccc1NC(=O)c1ncoc1-c1ccco1 | inactive: -11.3%
Cc1nc(-c2ccccc2)sc1CCNC(=O)C(=O)Nc1ccc2c(c1)OCO2 | inactive: 12.3%
CCOC(=O)c1c(C)[nH]c(CCC(=O)NCc2ccccc2Cl)c1C | inactive: 14.7%
Cc1c(Cl)cccc1NC(=O)c1ccc2snnc2c1 | inactive: 8.11%
COc1ccccc1NC(=O)CCN1CCCCC1 | inactive: 2.33%
CCOc1ccc(OCC)c(NC(=O)C2CCN(c3nnc(-n4cccc4)s3)CC2)c1 | inactive: -8.27%
Cc1ccn2c(=O)c(C(=O)NCCCN3CCCCC3C)c(O)nc2c1 (stereo not drawn) | inactive: 3.29%
Cc1ccc(NC(=O)CCSc2nc(-c3ccco3)cc(C(F)(F)F)n2)cc1F | inactive: 0.215%
C=CCc1cccc2cc(C(=O)Nc3ccc(F)cc3)c(=O)oc12 | inactive: 0.424%

Compound | activity change, negative = cytotoxicity
COc1ccc2oc(=O)c(C(=O)Nc3ccc(C(=O)O)cc3)cc2c1 | inactive: 14.5%
FC(F)(F)Oc1ccc2c(c1)NC(c1ccncc1)=NC(c1cccs1)=N2 | inactive: -10.4%
C=Cc1ccc(Cn2c(C)c(CNCCc3ccccc3C)c(C(=O)O)c2C)cc1 | inactive: -3.76%
O=C(COc1ccc(Cl)cc1)Nc1ccc(C(=O)OCc2cc(=O)n3ccsc3n2)cc1 | inactive: 2.84%
COc1ccc(OCC(=O)Nc2nnc3n2CCS3)cc1 | inactive: 1.12%
CCOC(=O)N1CCN(Cc2nc3cc(NC(=O)c4ccc(OC)cc4)ccc3n2C(C)C)CC1 | inactive: -18.8%
CC(=O)Nc1ccc(S(=O)(=O)N2CCC(c3nnnn3-c3ccccc3)CC2)cc1 | inactive: -4.17%
CCOc1ccc(-n2nc(CO)c(C(=O)NCCCc3ccccc3)n2)cc1 | inactive: -15.3%
CCOc1ccc(NC(=O)CC2C(=O)N(c3ccc(C)cc3)C(=O)N2CCC2=CCCCC2)cc1 (stereo not drawn) | inactive: 10%
Nc1nonc1-c1nc2ccccc2n1Cc1cccc(Cl)c1 | inactive: 7.59%
Cc1ccc(CN(C(=O)c2ccccc2F)c2ccccn2)o1 | inactive: 12.4%
O=C(c1cccn2c(=O)c3cc(Cl)ccc3nc12)N1CCN(c2ccccc2F)CC1 | inactive: 9.4%
CCOC(=O)c1ccccc1NC(=O)CSc1nc(=O)[nH]c2c1CCC2 | inactive: 4.36%
Cc1ccccc1CN1C(=O)C2(c3ccccc31)N(c1ccccc1)C(=O)CS2(=O)=O (stereo not drawn) | inactive: -4.28%
COc1ccc(CCNC(=O)c2c(O)nc3ccccn3c2=O)cc1 | inactive: 5.34%
COc1ccc(Cl)cc1NC(=O)Cn1cc(C(=O)c2ccc(C)cc2)c(=O)c2ccc(C)nc21 | inactive: 3.29%
CCOc1ccc(C(=O)Nc2cccc(C(=O)OCc3cc(=O)n4nc(C5CC5)sc4n3)c2)cc1 | inactive: 5.5%
CSc1cccc(NC(=O)CN2CCN(Cc3ccccc3C)S2(=O)=O)c1 | inactive: 1.32%
CCCS(=O)(=O)N1CC(=O)N(c2cc(C)ccc2C)C(C)(C(=O)NC2CCCCCC2)C1 (stereo not drawn) | inactive: 0.22%
Cc1cccc(N2CCn3c2nc2c3c(=O)n(CCc3ccccc3)c(=O)n2C)c1 | inactive: 5.31%
COc1cccc(-c2cn3c(n2)sc2cc(C(=O)NCCc4ccc(OC)c(OC)c4)ccc23)c1 | inactive: -1.28%
CC(C)N1C(=O)C(O)(c2c[nH]c3ccccc23)c2ccccc21 (stereo not drawn) | inactive: -24.7%
N#CC1=C(N)N(c2cccc(Cl)c2)C2=C(C(=O)CCC2)C1c1cc(CN2CCOCC2)cs1 (stereo not drawn) | inactive: 0.396%
CCOc1ccc(-c2cc(C(=O)Nc3ccc(NC(C)=O)cc3)no2)cc1 | inactive: 1.26%
